# Experimental data: PubChem BioAssay AID686978 (National Center for Advancing Translational Sciences (NCATS), 2013)
# Out of some 420,000 compounds screened, about 64,000 (15%) were called active. The inconclusive results got no clear call from the source; some entries with a clear call stand among them for comparison. The call rests on the fitted dose curve; in most records, active means well fitted inhibition curve with a large enough effect; inconclusive means small, poorly fitted or top-dose-only effect; inactive means flat fitted curve, though single readings scatter. Potencies of inconclusive entries are left out as doubtful fits.
# Experiment: qHTS for Inhibitors of human tyrosyl-DNA phosphodiesterase 1 (TDP1): qHTS in cells in absence of CPT; further: nearly all actives have a fitted effect of over 55% in size
# Conditions: DT40 Tdp1-/- hTDP1 cells, no CPT, ATP luminescence, 48 h; activity change, negative = growth inhibition: at 46.2 µM (top of the series) unless noted
# Procedure, shortened: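 A cellular qHTS used chicken DT40 cells lacking endogenous Tdp1 but carrying stably transfected human TDP1. Compounds were applied without camptothecin, and cell growth kinetics were judged by ATP-dependent luminescence after ≥48 hr.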
# On the % scale 0 is the no-effect control and ±100 the full control effect; potency means the concentration at half of the fitted maximal effect; tags describe the fitted curve by direction and shape.
SMILES,Potency,"activity change, negative = growth inhibition"
COc1ccc(/C=C/C(=O)c2c(O)n(CCC3=CCCCC3)c(=O)[nH]c2=O)cc1OC,"inconclusive [inhibitor, single point]",–
C(=NC1CCCCC1)c1c[nH]c2ccccc12,–,inactive: 2.59%
CCCCNC(=O)NC(C(N)=O)P(=O)(OCC)OCC (stereo not given),–,inactive: 17.4%
N#CC(C(=O)C12CC3CC(CC(C3)C1)C2)c1nc2ccccc2[nH]1 (stereo not given),"inconclusive [inhibitor, single point]",–
COc1ccc(C2/C=C\CN(C(=O)Oc3ccccc3)CC(=O)N2Cc2ccc(F)cc2)cc1 (stereo not given),"inconclusive [inhibitor, single point]",–
FC(F)(F)c1ccccc1CCN1CCNCC1,–,inactive: 21.8%
CC1(C)N([O-])[N+](=O)C1(C)Br (stereo not given),–,inactive: -21.4%
O=c1[nH]c(=S)n(C2CC2)c(O)c1C=Nc1cccc(C(F)(F)F)c1,"inconclusive [inhibitor, partial curve]",–
O=C(c1ccccc1)N1CCN(c2ccccc2)CC1,active: 23.1 µM,–
COC(=O)c1ccc(CSc2nc3c(cnn3-c3ccc(C)cc3)c(=O)[nH]2)o1,"inconclusive [inhibitor, partial curve]",–
CCCCn1c(N)c(C(=O)NCc2cccs2)c2nc3ccccc3nc21,–,inconclusive: -32.5% [inhibitor]
O=C1NC(=O)C(=CCc2ccccc2)C(=O)N1,–,inconclusive: -30.5% [inhibitor]
Cc1ccc(NC(=S)NCC2CCCO2)cc1 (stereo not given),"inconclusive [inhibitor, single point]",–
CCc1cccc(C)c1N(C(=O)CCl)C(C)COC (stereo not given),–,inactive: -16.7%
O=C(Nc1cccc(C(F)(F)F)c1)OC1CN2CCC1CC2 (stereo not given),"inconclusive [inhibitor, single point]",–
CC(=O)OC1N=C(c2ccccc2Cl)c2cc(Br)ccc2NC1=O (stereo not given),"inconclusive [inhibitor, single point]",–
COC(=O)C1=C(c2ccc(OC)c(OC)c2)C[C@@H]2CC[C@H]1N2C(=O)NCCNC(C)=O,–,inactive: 1.02%
COCCCNC(=O)c1c(NC(=O)c2ccco2)n(Cc2ccccc2)c2nc3ccccc3nc12,active: 25.9 µM,–
O=C1NCN(c2ccccc2)C12CCN(C(c1ccccc1)c1nnnn1Cc1ccccc1)CC2 (stereo not given),"inconclusive [inhibitor, single point]",–
O=C(Nc1ccc(Cl)cc1C(=O)c1ccccc1)c1ccccc1,–,inactive: -22%
COc1cccc(-c2sc3ccccc3c2-c2ccc(OCCN3CCOCC3)cc2)c1,"inconclusive [inhibitor, single point]",–
CCN(CC)C(=O)c1cccc(-c2csc(C(C)(O)c3ccccc3)n2)c1 (stereo not given),"inconclusive [inhibitor, single point]",–
O=C(COc1ccc2ccccc2c1)N1CCN(C2CCN(Cc3ccccc3)CC2)CC1,"inconclusive [inhibitor, single point]",–

SMILES,Potency,"activity change, negative = growth inhibition"
CCOC(=O)C1(CCc2ccccc2)CCN(Cc2ccc(NC(C)=O)cc2)CC1,"inconclusive [inhibitor, single point]",–
Cc1ccccc1C(=O)Nc1cc(-c2ccc(Cl)cc2)nn1-c1ccccc1,"inconclusive [inhibitor, partial curve]",–
CSc1cccc(NC(=O)C2CCN(C(=O)c3cnn(-c4ccccc4)c3-n3cccc3)CC2)c1,active: 18.4 µM,–
CNC(=O)Oc1ccc(-c2cn3cc(C)ccc3n2)cc1,active: 11.6 µM,–
CCN(CC)c1ccc(N=Cc2c(O)n(Cc3ccccc3)c(=O)[nH]c2=O)cc1,active: 9.2 µM,–
Nc1c(C(=O)NCc2ccco2)c2nc3ccccc3nc2n1Cc1ccc(F)cc1,"inconclusive [inhibitor, single point]",–
CC1CCN(CC(=O)c2cccc(C(F)(F)F)c2)CC1,–,inactive: 4.32%
CCCCn1nnnc1C(CC)N1CCC2(CC1)C(=O)NCN2c1ccccc1 (stereo not given),"inconclusive [inhibitor, single point]",–
CC(=O)OC1CC[C@]2(C#N)[C@H]3CC[C@]4(C)[C@H](C5C=CC(=O)O5)CCC4(O)C3CCC2(O)C1 (stereo not given in full),"inconclusive [inhibitor, single point]",–
CCNC1(c2cccs2)CCCCC1=O (stereo not given),–,inactive: -16.5% [at 21.1 µM]
CC1(C)CC(N(CCc2ccccc2)Cc2ccccc2)CCO1 (stereo not given),"inconclusive [inhibitor, single point]",–
CN(C)C(Cc1ccc(Cl)cc1)C(=O)c1ccccc1 (stereo not given),–,inactive: -10.6%
Cc1ccc(C(=O)n2c(N)nc3ccccc32)cc1,"inconclusive [inhibitor, single point]",–
C#C[C@@]1(O)CCC2C3CCC4=C/C(=N/OCC(=O)NC(CCC(N)=O)C(=O)O)CC[C@]4(C)C3CC[C@@]21C (stereo not given in full),–,inactive: -8.96%
O=c1c2ccccc2nc(Cc2ccccc2)n1-c1cccc(O)c1,active: 20.6 µM,–
Cn1c2ccccc2c2c(C(=O)N3CCC4(CC3)OCCO4)cn(C3CCCCC3)c(=O)c21,"inconclusive [inhibitor, single point]",–
Cc1cccn2c(=O)c3c(nc12)N1CCC(Cc2ccccc2)CC1C1(C3)C(=O)N(C)C(=O)N(C)C1=O (stereo not given),"inconclusive [inhibitor, single point]",–
CCc1ccc(NC(=O)C(C)OC(=O)c2c(C)nn(Cc3ccccc3)c2Cl)cc1 (stereo not given),"inconclusive [inhibitor, single point]",–
CCCCCc1nc2ccccc2c(=O)n1-c1ccc(Cl)cc1[N+](=O)[O-],"inconclusive [inhibitor, partial curve]",–
COc1cccc(/C=C/c2nc(S(=O)(=O)c3ccccc3)c(N3CCC(C(N)=O)CC3)o2)c1,"inconclusive [inhibitor, single point]",–
CCN(CC)C(=O)[C@@H]1C=C2c3cccc4[nH]cc(c34)C[C@H]2N(C)C1,active: 40.1 µM,–
CCOc1cc2c(cc1OCC)-n1cccc1C(c1ccc(C)cc1C)NC2 (stereo not given),"inconclusive [inhibitor, single point]",–
